Repeats are few or missing, and single values can be far off.
Columns and labels:
[1] = tested on: CHO-K1; assay: hypodiploid nuclei frequency (% of nucleated events); higher = more hypodiploid events (aneugenic)
Protocol: (§1)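 Flow-cytometric in vitro micronucleus assay (Litron MicroFlow) in CHO-K1 cells in 96-well plates, 19 concentrations (4.5-200 µM, n=1 per concentration). Without S9, cells were exposed for 24 h and sampled at 48 h. With Aroclor 1254-induced rat liver S9, cells were exposed for 3-4 h and sampled at 27-28 h. Read-outs are %MN and %hypodiploid nuclei relative to nucleated events, and relative survival as the nuclei-to-bead ratio versus the 1% DMSO vehicle control (x100).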

[2] = tested on: CHO-K1; assay: relative survival (nuclei to bead ratio vs DMSO control) (% of vehicle control); higher = more surviving cells
Protocol: as §1

[3] = tested on: CHO-K1; assay: micronucleus frequency (% of nucleated events); higher = more micronuclei (genotoxic)
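For hypodiploid nuclei frequency (% of nucleated events) in this document: hypodiploid nuclei gated on a flow cytometer with 488 nm excitation after SYTOX Green staining, cultures at 37 °C, positive controls vinblastine without S9 and cyclophosphamide with S9.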
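For micronucleus frequency (% of nucleated events) in this document: cells lysed with nuclei stained by SYTOX Green, then micronucleus-gated events counted against nucleated events by flow cytometry with 488 nm excitation.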
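For relative survival (nuclei to bead ratio vs DMSO control) in this document: Lysed-cell nuclei stained with SYTOX Green and counted against counting beads by flow cytometry at 488 nm excitation, with vinblastine (no S9) and cyclophosphamide (plus S9) as positive controls.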

O=c1[nH]cnc2c1ncn2[C@H]1CC[C@@H](CO)O1 [2',3'-Dideoxyinosine]
Settings | hypodiploid nuclei frequency, [1] [%] | micronucleus frequency, [3] [%] | relative survival, [2]
concentration: 4.5 (µM), S9 metabolic activation: with S9, exposure time: 3-4 hours | 0.3 | 1.52 | 94.9
concentration: 4.5 (µM), S9 metabolic activation: without S9, exposure time: 24 hours | 0.76 | 1.3 | 98.4
concentration: 5.63 (µM), S9 metabolic activation: with S9, exposure time: 3-4 hours | 0.1 | 1.64 | 94.3
concentration: 5.63 (µM), S9 metabolic activation: without S9, exposure time: 24 hours | 0.46 | 1.72 | 74.3
concentration: 7.04 (µM), S9 metabolic activation: with S9, exposure time: 3-4 hours | 0.36 | 1.34 | 115
concentration: 7.04 (µM), S9 metabolic activation: without S9, exposure time: 24 hours | 0.36 | 1.04 | 140
concentration: 8.8 (µM), S9 metabolic activation: with S9, exposure time: 3-4 hours | 0.18 | 1.32 | 104
concentration: 8.8 (µM), S9 metabolic activation: without S9, exposure time: 24 hours | 0.62 | 1.66 | 90
concentration: 11 (µM), S9 metabolic activation: with S9, exposure time: 3-4 hours | 0.42 | 2.26 | 112
concentration: 11 (µM), S9 metabolic activation: without S9, exposure time: 24 hours | 0.56 | 1.18 | 102
concentration: 13.7 (µM), S9 metabolic activation: with S9, exposure time: 3-4 hours | 0.2 | 1.7 | 109
concentration: 13.7 (µM), S9 metabolic activation: without S9, exposure time: 24 hours | 0.36 | 1.8 | 103
concentration: 17.2 (µM), S9 metabolic activation: with S9, exposure time: 3-4 hours | 0.3 | 1.76 | 116
concentration: 17.2 (µM), S9 metabolic activation: without S9, exposure time: 24 hours | 0.38 | 1.64 | 99.5
concentration: 21.5 (µM), S9 metabolic activation: with S9, exposure time: 3-4 hours | 0.16 | 1.18 | 124
concentration: 21.5 (µM), S9 metabolic activation: without S9, exposure time: 24 hours | 0.74 | 1.64 | 85.3
concentration: 26.8 (µM), S9 metabolic activation: with S9, exposure time: 3-4 hours | 0.2 | 1.06 | 110
concentration: 26.8 (µM), S9 metabolic activation: without S9, exposure time: 24 hours | 0.2 | 1.6 | 72
concentration: 33.6 (µM), S9 metabolic activation: with S9, exposure time: 3-4 hours | 0.24 | 1.86 | 77.7
concentration: 33.6 (µM), S9 metabolic activation: without S9, exposure time: 24 hours | 0.46 | 1.72 | 57.7
concentration: 41.9 (µM), S9 metabolic activation: with S9, exposure time: 3-4 hours | 0.3 | 1.28 | 86.9
concentration: 41.9 (µM), S9 metabolic activation: without S9, exposure time: 24 hours | 0.42 | 1.28 | 65.6
concentration: 52.4 (µM), S9 metabolic activation: with S9, exposure time: 3-4 hours | 0.27 | 1.12 | 52.5
concentration: 52.4 (µM), S9 metabolic activation: without S9, exposure time: 24 hours | 0.52 | 1.82 | 62.1
concentration: 65.5 (µM), S9 metabolic activation: with S9, exposure time: 3-4 hours | 0.18 | 1.2 | 70.7
concentration: 65.5 (µM), S9 metabolic activation: without S9, exposure time: 24 hours | 0.54 | 1.52 | 53.8
concentration: 81.9 (µM), S9 metabolic activation: with S9, exposure time: 3-4 hours | 0.14 | 0.94 | 71.4
concentration: 81.9 (µM), S9 metabolic activation: without S9, exposure time: 24 hours | 0.84 | 2.22 | 72.8
concentration: 102 (µM), S9 metabolic activation: with S9, exposure time: 3-4 hours | 0.22 | 0.96 | 66.8
concentration: 102 (µM), S9 metabolic activation: without S9, exposure time: 24 hours | 0.6 | 1.5 | 78.5
concentration: 128 (µM), S9 metabolic activation: with S9, exposure time: 3-4 hours | 0.18 | 1.18 | 66.4
concentration: 128 (µM), S9 metabolic activation: without S9, exposure time: 24 hours | 0.6 | 2.06 | 77.2
concentration: 160 (µM), S9 metabolic activation: with S9, exposure time: 3-4 hours | 0.27 | 0.98 | 53.7
concentration: 160 (µM), S9 metabolic activation: without S9, exposure time: 24 hours | 0.76 | 3.04 | 81.8
concentration: 200 (µM), S9 metabolic activation: with S9, exposure time: 3-4 hours | 0.06 | 1.2 | 91.7
concentration: 200 (µM), S9 metabolic activation: without S9, exposure time: 24 hours | 0.86 | 2 | 63.6
